Laboratory results taken from US20140056902A1.
Substitutions are numbered along the chain they refer to. These are yes or no findings as the source states them, for the method shown. Some binding calls cover weakened binding; strength is not graded here.

Experiments:
[1] = target: human BMP9 recombinant protein prepared according to Example 12 of WO 2010/126169 (N-terminal His-tagged hBMP9 complex, pLN1V5_human BMP9 vector) (human) (UniProt Q9UK05); assay: competition ELISA against biotin-labeled R&D antibody; inhibitory at a lower concentration than R&D antibody
[2] = target: T1, chimeric protein 3 of human BMP9/10 region C (human) (UniProt Q9UK05); assay: antigen-immobilized ELISA
T1 sequence 1: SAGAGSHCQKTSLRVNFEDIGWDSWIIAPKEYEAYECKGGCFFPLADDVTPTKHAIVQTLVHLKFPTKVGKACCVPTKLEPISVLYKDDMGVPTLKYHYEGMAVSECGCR
T1 sequence 2: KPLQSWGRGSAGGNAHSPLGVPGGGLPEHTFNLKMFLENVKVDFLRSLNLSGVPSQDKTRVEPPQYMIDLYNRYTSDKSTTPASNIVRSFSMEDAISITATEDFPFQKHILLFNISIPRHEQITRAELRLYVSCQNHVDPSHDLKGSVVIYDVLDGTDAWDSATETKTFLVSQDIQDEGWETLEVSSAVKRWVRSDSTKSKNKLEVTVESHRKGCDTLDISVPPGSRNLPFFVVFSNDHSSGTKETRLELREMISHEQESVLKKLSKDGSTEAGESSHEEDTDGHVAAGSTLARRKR

[3] = target: T1, chimeric protein 3 of human BMP9/10 region C (human); assay: antigen-immobilized ELISA, antigen coated at 3 ug/mL, antibody 1000 ng/mL; + = absorbance of 1 or more
[4] = target: human BMP9 recombinant protein prepared according to Example 12 of WO 2010/126169 (N-terminal His-tagged hBMP9 complex, pLN1V5_human BMP9 vector) (human) (UniProt Q9UK05); assay: as above
[5] = target: human BMP9 recombinant protein prepared according to Example 12 of WO 2010/126169 (N-terminal His-tagged hBMP9 complex, pLN1V5_human BMP9 vector) (human) (UniProt Q9UK05); assay: blocking ELISA on immobilized human BMP9 (3 ug/mL coat): antibody at 1000 ng/mL with 3 ug/mL BMPRII-Fc, bound Fc detected, inhibitory activity (%)
[6] = target: human BMP9 recombinant protein prepared according to Example 12 of WO 2010/126169 (N-terminal His-tagged hBMP9 complex, pLN1V5_human BMP9 vector) (human) (UniProt Q9UK05); assay: competition ELISA on immobilized human BMP9: unlabeled antibody against 50 ng/mL biotin-labeled R&D antibody, inhibitory activity (%); unit ng/mL from the legend
[7] = target: chimeric protein 5 of human BMP9/10 region C (human) (UniProt Q9UK05); assay: condition: absorbance of less than 1 at 1000 ng/mL antibody; antigen-immobilized ELISA, antigen coated at 3 ug/mL
[8] = target: T2, chimeric protein 2 of human BMP9/10 region C (human) (UniProt Q9UK05); assay: as above
T2 sequence 1: T1 sequence 1 with E80S, V84I, L95Y, Y97F, H98K, A103S, S105A
T2 sequence 2: T1 sequence 2

Measured: binding

B1: 6D10-1-1 antibody (antibody, mouse IgG1, V domains shown)
VH: QVQLQQSGAELVRPGTSVKVSCKASGYAFTNYLMEWIKQRPGQGLEWIGVIHPGIGVTNYNEKFKGKATLTADISSSTAYMQLSSLTSEDSAVYFCARRANWDLYYFDYWGQGTTLTVSS
VL: DIQMTQITSSLSASLGDRVTISCSASQDISNYLNWYQQKPDGTVKLLIYYTSSLHSEVPSRFSGSGSGTDYSLTISNLEPEDIATYYCQQYINLPLTFGAGTKLELKR
no binding: [7] | [8]
binds: all other assays above
